B1: tRNA (parent)
chain: CUCUCGGUAGCCAAGUUGGUUUAAGGCGCAAGACUUUAAUUUAUCACUACGAAAUCUUGAGAUCGGGCGUUCGACUCGCCCCCGGGAGAUUUUUUCCUCGAGCAA

Variants at the background level are over-represented here.

This data set covers variants of B1. The experiment in a line: nonsense suppression (GFP-seq) (ratio to wild type); higher = more function; SUP4oc tRNA, yeast GFP reporter sort-seq. In short, it runs like this:
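Sorted GFP/RFP bins of yeast were each Illumina-sequenced with a phred ≥30 cutoff; the cells held a genome-integrated ochre-suppressor tRNA variant from a library with ~3% random mutations, a galactose-driven GFP ochre reporter, and RFP. Culture was in raffinose/galactose medium containing 80 mg/L adenine. Nonsense suppression, termed GFPSEQ, is the median GFP/RFP of the bins weighted by each variant's estimated cell share per bin, relative to the unmutated parent tRNA, for variants reaching ≥100 reads and ≥30 cells.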
Consider G66C G85C, for which the nonsense suppression is at most 0.026.
With G15U U21G the figure was at most 0.026.
With A13G G19C A54U the figure was at most 0.026.
Next, U16C G19U G26A: at most 0.026; G67C C81G: at most 0.026.
As for G26A C27A, the nonsense suppression is at most 0.026.
With A14U G86C the figure was at most 0.026; with C1G U35A G84C, at most 0.026; with G78A G84U, 0.0325.
Next, C29A A60G: 0.0331; G19U C72A: at most 0.026.
Next, G28U C34U: at most 0.026.
Consider G7U A13C G69U A74C, for which the nonsense suppression is at most 0.026.
Next, G18C U21G G67A: at most 0.026; G6C A9G G25C C27A A30G C34G: at most 0.026; G6A G66A G67C: at most 0.026.
With C3A A62C C75G the figure was at most 0.026.
Next, G18U G19U: at most 0.026; A30C A54C G73A: at most 0.026.
In the case of A9C C68A C82U A87G, the nonsense suppression is at most 0.026.
Turning to G32C A60C C82U, the nonsense suppression was at most 0.026.
With C34A U55C G69U A89U the figure was at most 0.026; with U16A A60C U63C, at most 0.026.
With G10U A33G A54C the figure was at most 0.026; with C1G G7A G28A, at most 0.026.
Next, A33C A62G: at most 0.026; A9U A30U A33U A74U: at most 0.026; G25A C81A G85C: at most 0.026.
As for C79U C82G, the nonsense suppression was at most 0.026.
Next, G10C U17A G73U G85C: at most 0.026; C72G G85U: at most 0.026; C3A C11G U57A U76A C79U: at most 0.026.
With A62U G88U the figure was at most 0.026; with U4C A14G A33U, at most 0.026; with A9C C11G G32U G69U, at most 0.026.
For U2A C75U C77U, the nonsense suppression is at most 0.026.
With U20G C68A C72G C82A the figure was at most 0.026.
Consider G7C A74G, for which the nonsense suppression is at most 0.026.
Turning to A13G A14G U71G, the nonsense suppression was at most 0.026.
With C3G U22G the figure was at most 0.026; with U8G G19U A24U G26U U58G G88C, at most 0.026.
G7C G25C G28U A60G: the nonsense suppression was at most 0.026.
With C27U U35A U58A G65A G78C the figure was at most 0.026; with A24G G32A G67A G84A, at most 0.026; with U2G C34G A87G, at most 0.026.
With U4A G7C the figure was at most 0.026; with A33U U55C U63A U70C, at most 0.026.
Next, C12G G26U C29U C80A: at most 0.026; C11G G66U A89C: at most 0.026.
As for G19U G25U C56U, the nonsense suppression is at most 0.026.
With C12A G86A A87U the figure was at most 0.026; with A30C G69C, at most 0.026; with U8C C29A G85U, at most 0.026.
As for G19A C29G U70G G85U, the nonsense suppression is at most 0.026.
Regarding G10C C34G C56G G59A U71C, the nonsense suppression is at most 0.026.
Next, U58G C72A U76G: at most 0.026; G67C C80G: at most 0.026.
With G15C U35A G69U the figure was at most 0.026.
With A9C A13G G26A G65C the figure was at most 0.026.
Take G26U A30G U58A G84C G88A: the nonsense suppression was at most 0.026.
Next, U4G G78U G84U: at most 0.026.
With C1U A54U G88A the figure was 0.209.
With U2G C56G C83A the figure was at most 0.026.
As to C1A A14U C81G, the nonsense suppression is at most 0.026.
As to U58A G59A, the nonsense suppression is at most 0.026.
For the variant U20C C56G, the nonsense suppression was at most 0.026.
Next, C27G G78A: at most 0.026.
With G25C A33C A89G the figure was at most 0.026; with A13C C75G, 1.15.
Next, C3U A13G U58G A60C: at most 0.026; U4A U17A U22C: 0.0499; G7A C11G: at most 0.026.
As to C79A A87C, the nonsense suppression is at most 0.026.
Regarding G26A C27G G88C, the nonsense suppression was at most 0.026.
A60C G65U: the nonsense suppression is at most 0.026.
Next, A24C A30C G66U: at most 0.026; C12U U63C U76G: at most 0.026.
Next, C81U G88U: 0.0501; U2G G28A A62C U63A U71C A87U: at most 0.026; C12G A30G: at most 0.026.
Next, U21C U57G G67C C77A: at most 0.026; U2C A13U: 0.0357; U57C G78U: at most 0.026.
Regarding C1U A24G, the nonsense suppression is at most 0.026.
For C12U A60U C80A G86C, the nonsense suppression is at most 0.026.
With U21A G66A the figure was at most 0.026; with C5A U20G A33G U55C U57G, at most 0.026; with G25C U35C C80G G84A, at most 0.026.
Next, U17A C34G: at most 0.026; G25A G26U G65A G67A: at most 0.026.
With C3U A9U G88A the figure was at most 0.026; with A14U U16C G66C C75U, at most 0.026; with U17G G61U C81A, at most 0.026.
On to G7U A24U G86U, for which the nonsense suppression was at most 0.026.
Consider A23U U57C, for which the nonsense suppression is at most 0.026.
C27G G65C G86C: the nonsense suppression was at most 0.026.
Take A33C C34U A74U: the nonsense suppression is at most 0.026.
On to C29U A33G, for which the nonsense suppression was at most 0.026.
Regarding C3U G19C G59U A60G C72A, the nonsense suppression is at most 0.026.
Turning to C11U U35G G59U A87C, the nonsense suppression is at most 0.026.
G7C U20C A60C U71A: the nonsense suppression was at most 0.026.
Next, G10A A31C G65C G86U: at most 0.026.
With A24G A74G G86A the figure was at most 0.026.
Next, A30G G85A: 0.793; A13G G67U U70A C72G: at most 0.026; C27G C64A G66C: at most 0.026.
Take C3A U21A G69C: the nonsense suppression was at most 0.026.
In the case of C3A U4A A24U, the nonsense suppression is at most 0.026.
Next, C1A U2G C3A: at most 0.026; C11U U55A C82G C83A: at most 0.026; G7U C11A U21A A23C: at most 0.026.
As for G15U G18A U58C G85U, the nonsense suppression is at most 0.026.
Next, U8G C56U: at most 0.026.
For the variant A23G C29U C79A, the nonsense suppression is at most 0.026.
Next, A13G G84C: at most 0.026; U21A G69C: at most 0.026.
With G28C G65U C68A the figure was at most 0.026; with C12A A60C, at most 0.026.
Next, A30G C80U C83G: at most 0.026.
Consider C79G C83U, for which the nonsense suppression was at most 0.026.
With A60U U71A C75U C82A the figure was at most 0.026; with G19A G26U C27G, at most 0.026.
Next, U8A C56A G61A G84A G88U: at most 0.026.
With C12G G84A A87U, the nonsense suppression was at most 0.026.
With G15C G25C A54U the figure was at most 0.026; with A33C A60G A87C, at most 0.026; with A14U A24G, at most 0.026.
With U16C U17G U55C A74C the figure was at most 0.026; with U58G G65U, at most 0.026.
On to A31G C81A G86U, for which the nonsense suppression was at most 0.026.
With C1G U16C U20A U21A A24U A87C the figure was at most 0.026; with G26U C27G U63G, at most 0.026.
With A24C U70C G73A the figure was at most 0.026; with G15C G18C U21C A31C C68G G78A, at most 0.026; with C3U G25A U63C, at most 0.026.
Take G6U U8C C11U C12U U22G A24G G26C C68U G86C: the nonsense suppression was at most 0.026.
Next, U4C A33G: 0.0434; C5G A31U G66C: at most 0.026.
Next, C3G C56G: at most 0.026; C3U U22G G88U: at most 0.026; C56G A62C U71A C82G: at most 0.026.
With G25A A60G G86C the figure was at most 0.026; with A13U G78C, 0.0621.
On to C3G G10C A24U C29A G86C, for which the nonsense suppression is at most 0.026.
Next, A24U A87G: 0.147; G18U C34G U71C C72A: at most 0.026.
With C3A A31G A54C the figure was at most 0.026; with G61C G69C C79G G84C, at most 0.026.
As for U17C C34G, the nonsense suppression is at most 0.026.
For the variant A9G U57C, the nonsense suppression was at most 0.026.
In the case of G28U C34A C77U, the nonsense suppression is at most 0.026.
With C11A A31G C56G the figure was at most 0.026.
With C68G U76G C82G the figure was at most 0.026.
As for A9U U21G U35A G65A G66C, the nonsense suppression was at most 0.026.
Next, U2A A9C U55A: at most 0.026; U63A C75G U76C: 1.19.
With C64U G67U G78C the figure was at most 0.026.
With G19U U57C the figure was at most 0.026.
As for U22C G26C, the nonsense suppression was at most 0.026.
Take C3U A62U G69C: the nonsense suppression is at most 0.026.
Turning to G32C U63A C83U A89C, the nonsense suppression was at most 0.026.
Next, G61U U76C: 0.911.
Next, C5G U35C U71A: at most 0.026; C11G G73C A74C: at most 0.026.
For C27A A31G, the nonsense suppression is at most 0.026.
Next, A31C C72G: at most 0.026; U2A G10U G25A C83G: at most 0.026.

For the origin of these results see the RNAGym collection of RNA variant scans (doi:10.1101/gad.245936.114).
